# According to article PMC4336329 (PLoS ONE, 2015):
# Out of some 310,000 compounds screened, about 14,000 (4.5%) showed an effect of 50% or more. The effect is printed as a negative number. This is one part of the list. Where a SMILES comes first, the peptide text is derived from it. [ ]: non-standard residue; d: D form. The star is where a group is joined. ξ: configuration not given here. Cbz = O=C(OCc1ccccc1)*; ξV = CC(C)C(N)C(=O)O
# Biological target: human ether-à-go-go-related gene (hERG) potassium channel (human, UniProt Q12809)
# Test: primary screen, population patch clamp on CHO cells stably expressing hERG
# 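Further: peak tail current of the secondary pulse compared with the same well before compound.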
# Sequence of human ether-à-go-go-related gene (hERG) potassium channel (Q12809 whole entry, looked up): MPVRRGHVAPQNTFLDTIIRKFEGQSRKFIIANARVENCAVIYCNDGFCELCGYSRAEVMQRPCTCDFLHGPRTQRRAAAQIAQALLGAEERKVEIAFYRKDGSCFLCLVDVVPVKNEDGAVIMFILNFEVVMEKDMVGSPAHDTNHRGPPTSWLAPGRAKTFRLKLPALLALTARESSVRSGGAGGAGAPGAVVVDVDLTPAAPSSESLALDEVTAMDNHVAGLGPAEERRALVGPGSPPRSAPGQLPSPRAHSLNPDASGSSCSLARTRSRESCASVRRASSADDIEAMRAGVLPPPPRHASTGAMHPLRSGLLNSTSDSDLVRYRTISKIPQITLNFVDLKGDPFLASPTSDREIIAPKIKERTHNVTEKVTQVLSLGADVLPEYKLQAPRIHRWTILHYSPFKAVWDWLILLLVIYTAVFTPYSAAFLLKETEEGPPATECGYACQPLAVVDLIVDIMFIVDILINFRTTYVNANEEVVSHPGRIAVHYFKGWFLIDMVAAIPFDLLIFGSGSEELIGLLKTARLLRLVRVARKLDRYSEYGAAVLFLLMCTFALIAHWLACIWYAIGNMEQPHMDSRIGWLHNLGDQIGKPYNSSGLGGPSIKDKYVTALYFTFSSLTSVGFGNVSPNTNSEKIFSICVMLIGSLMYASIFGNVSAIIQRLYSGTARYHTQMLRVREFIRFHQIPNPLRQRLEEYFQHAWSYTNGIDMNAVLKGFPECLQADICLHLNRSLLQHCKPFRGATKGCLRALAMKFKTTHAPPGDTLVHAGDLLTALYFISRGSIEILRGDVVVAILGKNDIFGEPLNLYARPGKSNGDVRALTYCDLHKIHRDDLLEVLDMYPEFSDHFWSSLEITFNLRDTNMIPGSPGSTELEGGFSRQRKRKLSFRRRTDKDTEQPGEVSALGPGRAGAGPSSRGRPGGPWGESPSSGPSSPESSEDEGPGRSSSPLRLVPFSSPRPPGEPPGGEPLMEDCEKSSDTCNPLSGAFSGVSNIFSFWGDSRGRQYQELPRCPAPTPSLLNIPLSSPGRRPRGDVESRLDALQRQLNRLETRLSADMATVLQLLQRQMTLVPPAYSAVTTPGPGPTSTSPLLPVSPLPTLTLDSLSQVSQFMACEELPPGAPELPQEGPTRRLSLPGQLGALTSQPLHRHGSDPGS
row,Structure (SMILES),"hERG current change (%, negative = inhibition) at 10uM [%]"
1,O=C(OCc1ccc(Cl)c(Cl)c1)c1cnccn1,9.11
2,CCOC(=O)N1CCN(C(=O)C2CCCN(c3nc4ccc(OCC)cc4s3)C2)CC1 (stereo not shown),-37.3
3,CC1CCc2c(sc3nc(CN4CCN(S(=O)(=O)c5ccccc5[N+](=O)[O-])CC4)[nH]c(=O)c23)C1 (stereo not shown),-8.04
4,Cc1c(C(=O)O)cnc2c([N+](=O)[O-])cnn12,28.9
5,CC(=O)n1nc(-c2ccccc2)nc1NCc1ccc(F)cc1,17.1
6,Cc1ccc(-n2c(-c3cn(C)nc3C)n[nH]c2=S)cc1,19.7
7,Cc1cc(C(=O)OC(C)C(=O)NC2CCCCC2)c(C)o1 (stereo not shown),4.91
8,CC(=O)Nc1ccccc1OCC(O)CS(=O)(=O)c1ccc(C(F)(F)F)cn1 (stereo not shown),1.17
9,O=C(c1ccc(Br)cc1)N1CCN(Cc2ccccc2)CC1,-52.2
10,CCN(CC)CCNC(=O)c1cn(CC)c2cc(N3CCN(C(=O)c4ccco4)CC3)c(F)cc2c1=O.Cl,0.131
11,CC(O)CNCCOc1ccccc1OCc1ccccc1.O=C(O)C(=O)O (stereo not shown),-7.17
12,O=C(COC(=O)C1CC(=O)N(Cc2ccccc2)C1)Nc1ccccc1F (stereo not shown),7.39
13,COc1ccc(NC(=O)C2CCCN2c2ccc(OC)c(OC)c2)cc1OC (stereo not shown),-2.81
14,C=CCNCCOCCOc1ccc(Cl)cc1C(C)(C)C.O=C(O)C(=O)O,11.2
15,CC1CN(c2ccc([N+](=O)[O-])cc2Cl)CCN1S(C)(=O)=O (stereo not shown),-47.2
16,CCN1C(=O)c2cccc3c(NS(=O)(=O)c4ccc(NC(C)=O)cc4)ccc1c23,-8.89
17,COc1ccccc1CN1C(=NC(=O)CCC2CCCC2)SC2CS(=O)(=O)CC21 (stereo not shown),17.2
18,CCOC(=O)c1[nH]c2c(c1-c1ccccc1)C(=O)CC(c1ccccc1)C2 (stereo not shown),-9.17
19,Cc1ccc(N(CC(O)CN2CCCCC2)S(=O)(=O)c2ccccc2[N+](=O)[O-])cc1 (stereo not shown),-70.9
20,COC(=O)CNC(=O)C(NC(=O)OCc1ccccc1)C(C)C (stereo not shown) (Cbz-[ξV]-Gly-OMe),16.1
21,Cc1oc(CC(C)C)cc1C(N)=O,13.3
22,Cc1cccc2nc(-c3ccco3)c(Nc3ccccc3)n12,11.4

row,Structure (SMILES),"hERG current change (%, negative = inhibition) at 10uM [%]"
1,COc1ccccc1NC(=O)Cn1c(=O)n(-c2ccccc2)c(=O)c2oc3ccccc3c21,9.59
2,CC(NC(=O)COc1cccnc1[N+](=O)[O-])c1ccc(Cl)cc1Cl (stereo not shown),-16.4
3,CCc1ccc(/C=N/NC(=O)c2cc(C3CC3)nc3ccccc23)s1,-4.16
4,CCOc1ncccc1C(=O)OCC(=O)Nc1c(C)cccc1C,4.92
5,N#Cc1ccccc1Cn1cc(C#N)c2ccccc21,-22.8
6,CCOc1cc(/C=C(/C#N)C(=O)Nc2ccc(OC)cc2)ccc1OCc1ccc(C(=O)O)cc1,13.1
7,CCOC(=O)N1CC=C2C(C#N)=C(N)C(C#N)(C#N)[C@H](c3ccc(OCC)c(OCC)c3)[C@H]2C1,2.57
8,O=C(NNC(=O)c1sccc1-n1cccc1)c1ccccc1,0.14
9,Cl.O=C(OCCN1CCCCC1)C1(c2ccccc2)CCCC1,4.72
10,O=C1C(Cl)=C(N2CCN(Cc3ccccc3)CC2)C(=O)N1Cc1ccccc1,-1.82
11,N#Cc1ccc(COC(=O)CSc2nnc(N)s2)cc1,-3.8
12,Fc1ccc(N2Cc3ccsc3C=N2)cc1,12.4
13,Cc1nn(-c2ccccc2)c2sc(C(=O)NNC(=O)COc3cccc4ccccc34)cc12,-2.4
14,CCOc1ccc(C(=O)OCC(=O)Nc2nc(OC)cc(OC)n2)cc1OCC,11.3
15,Cl.OC1(C#CCN2CCCC2)CCCCC1,9.16
16,O=C(NCCCCc1ccccc1)Nc1ccc(F)cc1F,10.7
17,CCc1ccc(-c2cc3c(=O)n(CC(=O)NCCCN4CCN(C)CC4)ncn3n2)cc1,-4.24
18,Cc1c(NC(=O)C(C)C)cccc1-c1nc2ncccc2o1,12.9
19,CCOC(=O)CN(C(=O)c1snc(C(N)=O)c1N)C(C(=O)NCCC(C)C)c1ccc(F)cc1 (stereo not shown),-4.75
20,CCOC(=O)N1CCN(C(=O)CCS(=O)(=O)c2ccc(Br)s2)CC1,1.85
21,COc1ccc2[nH]c(=O)c(CN(C(C)=O)C3CCCCC3)cc2c1,-12.9
22,O=C(/C=C/c1c(Cl)cccc1Cl)N1CCN(c2ncccn2)CC1,-72.7

row,Structure (SMILES),"hERG current change (%, negative = inhibition) at 10uM [%]"
1,CCOC(=O)c1ccc(NC(=O)c2cc3c(C)nn(-c4ccccc4Cl)c3s2)s1,18.8
2,COc1ccccc1-c1nc(C#N)c(N2CCN(c3cccc(Cl)c3)CC2)o1,-2.07
3,Cc1ccc(NC(=O)CSCC(=O)Nc2cccc(S(=O)(=O)N3CCCCCC3)c2)cc1,-24.5
4,Cc1cc(SCC(=O)N/N=C/c2ccc(O)cc2O)c(C)cc1Br,4.53
5,COc1ccccc1OCC#CCN1CCOCC1.O=C(O)C(=O)O,18.9
6,COc1ccc(C2CC(=O)N3C(=C2C#N)SCC3(O)c2ccccc2)cc1 (stereo not shown),-24.5
7,Cc1ccc(C(=O)N(CC(=O)NC2CCCC2)c2ccc3c(c2)OCCO3)s1,-17.1
8,O=C(NCc1ccco1)C1OCCc2ccccc21 (stereo not shown),-2.06
9,COc1ccc(OCC(=O)OCC(=O)NCc2ccco2)cc1,-4.81
10,Cc1ccc(NC(=S)N2CCOCC2)cc1,-27.9
11,Cc1ccc(N(CC(=O)NC2CCCC2)C(=O)CCCC(=O)Nc2ccccn2)cc1C,2.86
12,O=C(O)c1ccccc1SCc1cn2ccccc2n1,4.74
13,Cc1ccc(S(=O)(=O)NCCc2ccncc2)cc1,-0.657
14,CN1CCN(C(=S)NC(=O)c2cccc([N+](=O)[O-])c2)CC1,25.5
15,CN(C(=O)COc1cc(=O)n(C)c2ccccc12)c1cccc(Cl)c1,-19
16,CN(C)c1ccc(CNC(=O)CN(C)S(=O)(=O)c2ccc3c(c2)c(=O)n(C)c(=O)n3C)cc1,9.67
17,Cc1csc2nc(CNC(=O)c3ccco3)cn12,24.9
18,CCOC(=O)C1=C(c2ccccc2)NC(=O)NC1c1ccc(O)c(Cl)c1 (stereo not shown),4
19,Cc1ccc(C2=N/C(=C\c3ccc(F)cc3)C(=O)N2)cc1,-1.1
20,Cc1ccc(NC(=O)C2=COCCO2)cc1S(=O)(=O)N1CCOCC1,-0.0399
21,Cc1cc(C(=O)NNC(=S)Nc2cccc(C(F)(F)F)c2)nn1C,30.1
22,COC(=O)c1sccc1NC(=O)c1ccoc1C,8.11

row,Structure (SMILES),"hERG current change (%, negative = inhibition) at 10uM [%]"
1,COc1ccc2cc(C(=O)Nc3ccc(F)cc3)sc(=O)c2c1OC,7.9
2,N#Cc1ccccc1NC(=O)c1ccccc1OCC(=O)Nc1ccc2c(c1)oc1ccccc12,16.2
3,CCC(=O)Nc1sc(C(=O)OC)c(C)c1C(=O)OC,7.74
4,COc1ccc(-c2nc(N3CCCCCC3)sc2C(=O)c2ccccc2)cc1,4.37
5,C#CC(C)(CC)NC(=O)Cn1nnc(-c2cccc(C(F)(F)F)c2)n1 (stereo not shown),-10.4
6,CCCCS(=O)(=O)N1CCCC(C(=O)NCCc2ccccc2)C1 (stereo not shown),12.7
7,CC1CCCC(C)N1C(=O)CSc1nnc(COc2ccccc2)n1-c1ccccc1 (stereo not shown),1.37
8,NC(=O)C1CCN(C(=O)CCc2nc3ccccc3c(=O)[nH]2)CC1,-1.48
9,O=C(C[N+]1(CC#Cc2ccccc2)CCOCC1)c1ccccc1.[Br-],35.8
10,CCN(CCCNC(=O)CN(C)S(=O)(=O)c1cccc2nsnc12)c1ccccc1,-14.8
11,O=C(c1ccncc1)N(Cc1ccccc1)Cc1nc2ccccc2c(=O)[nH]1,-10.3
12,CCc1ccc(NC(=O)Nc2cccc(OC)c2)cc1,7.44
13,CCC(C(=O)OCCOCCN(CC)CC)c1ccccc1 (stereo not shown),1.01
14,O=C(NCc1cccnc1)C(=O)N/N=C/c1ccc([N+](=O)[O-])cc1,23.4
15,COc1ccc(C)cc1NC(=O)CSCc1ccccc1C,-4
16,CCOC(=O)N1CCN(C(=O)C2CCN(S(=O)(=O)c3cc(C)ccc3OC)CC2)CC1,12.6
17,CCCCN(C)C(=O)C1CCN(Cc2cccc(OCc3ccccc3)c2)CC1.O=C(O)C(=O)O,-67.7
18,CCCc1cc2c(=O)c(-c3ccccn3)coc2cc1OC,0.316
19,CCn1c(SCC(=O)Nc2ccc(NC(C)=O)cc2)nc2c([nH]c3ccccc32)c1=O,20.2
20,CC(Oc1ccccc1F)c1nnc(SCC(=O)Nc2ccc(N3CCOCC3)cc2)o1 (stereo not shown),-13.8
21,Cn1c(CN2CCOCC2)nc2cc(NC(=O)COc3ccccc3)ccc21,-0.505
22,CC1CCN(S(=O)(=O)c2ccc3c(c2)CCN3C(=O)C2CCC2)CC1,10.1
